# Reference: the supplement of paper PMC4166925
# ± gives the standard deviation of the averaged measurements. Whole data set: some 33,000 sequences, median “E-score (dimensionless, -0.5 to 0.5)” near -0.046, cut for the highest 2% near 0.36. Some of the results follow.
# System: T1, SpTbr T-box DNA-binding domain (GST fusion)
# T1 sequence: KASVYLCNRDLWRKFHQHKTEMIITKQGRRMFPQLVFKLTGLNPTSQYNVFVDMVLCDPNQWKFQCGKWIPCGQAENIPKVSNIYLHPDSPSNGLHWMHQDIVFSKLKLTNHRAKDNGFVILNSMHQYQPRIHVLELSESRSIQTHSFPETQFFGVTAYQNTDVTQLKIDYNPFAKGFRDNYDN
# Assay: PBM E-score of 8-mer (E-score (dimensionless, -0.5 to 0.5)); Tbr is Tbrain of the sea star Patiria miniata (Pm) or the sea urchin Strongylocentrotus purpuratus (Sp); higher = stronger binding preference; most listed sequences are background and not binding sites
# Conditions: the construct has about 5 more residues each side
# Experimental: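 Universal protein-binding microarray (Agilent AMADID 016060, 60-bp probes with a 35-bp variable region) incubated with 200 nM GST-fused Strongylocentrotus purpuratus Tbr T-box DNA-binding domain (residues 362-554) in PBS pH 7.5. Scored for every ungapped 8-mer (given with its reverse complement) as E-score (range -0.5 to 0.5; >0.45 counts as bound) and Z-score of median probe intensity. Two replicate arrays (datasets 1 and 2).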
# 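Also: protein at 200 nM in PBS on universal double-stranded arrays.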
row,Sequence,PBM E-score of 8-mer
1,AGTCAGAC,-0.169 ± 0.017
2,GAAAATGC,-0.24 ± 0.011
3,AGCCGATC,-0.0387 ± 0.098
4,CAGATACC,-0.21 ± 0.033
5,CCTATCAG,-0.0272 ± 0.0079
6,ATCAACGG,-0.0876 ± 0.0074
7,TCTAAGAA,-0.228 ± 0.022
8,ACAATTAC,0.0614 ± 0.028
9,AGACCGCG,0.153 ± 0.032
10,ACTCGTAG,-0.0301 ± 0.03
11,GCCAGCGC,0.166 ± 0.055
12,AACCCCTA,-0.196 ± 0.0075
13,AGAGATAG,-0.0944 ± 0.028
14,GCCGGGCA,-0.161 ± 0.044
15,ATACTTGA,-0.107 ± 0.015
16,ACTTTGGG,-0.136 ± 0.01
17,AAGGTACG,-0.0434 ± 0.066
18,CAGACTGC,0.0403 ± 0.0089
19,GTGAATGA,0.177 ± 0.028
20,CATACACA,0.0213 ± 0.017
21,AATTAAAA,-0.179 ± 0.0028
22,ATTCCCGA,-0.13 ± 0.027
23,ACGTTTAC,0.0397 ± 0.056
24,TGTTTTAA,-0.0468 ± 0.011
25,CGAATGGA,-0.133 ± 0.037

row,Sequence,PBM E-score of 8-mer
1,AATGAATG,-0.0644 ± 0.022
2,AGACTCAA,-0.232 ± 0.065
3,CTAAAACA,0.103 ± 0.021
4,CCTCGGTC,-0.0562 ± 0.039
5,CATTAGAG,-0.108 ± 0.042
6,CTTAGAAC,-0.0856 ± 0.044
7,CATCCGGA,-0.317 ± 0.011
8,ACCCACCA,-0.134 ± 0.013
9,ATGTCGAA,-0.0194 ± 0.026
10,GGGGCGGA,-0.405 ± 0.0052
11,TACACTCA,0.137 ± 0.013
12,AGTAGTCC,-0.153 ± 0.095
13,CTCTAGTA,-0.225 ± 0.0014
14,AATTCTTC,-0.131 ± 0.05
15,ACCACGAT,0.0598 ± 0.0037
16,GCTCGTGA,0.227 ± 0.015
17,CTCTAACA,0.199 ± 0.018
18,AAGTGGCG,0.362 ± 0.0062
19,CATTCTGG,-0.12 ± 0.017
20,CTGAAGGA,-0.28 ± 0.03
21,CATTACAC,0.243 ± 0.033
22,GGTTCTAA,-0.119 ± 0.057
23,CGATATGC,0.014 ± 0.0068
24,CCTCTTTC,-0.0462 ± 0.035
25,GTCCACCA,-0.164 ± 0.053

row,Sequence,PBM E-score of 8-mer
1,CAGTTTGG,0.047 ± 0.035
2,GCGTGAGC,0.286 ± 0.028
3,AAATGCTG,-0.18 ± 0.0037
4,AGCGATGG,0.0111 ± 0.057
5,CTGGCCGC,-0.136 ± 0.07
6,CTCAGTAA,-0.118 ± 0.042
7,GAATAAGA,-0.0605 ± 0.062
8,CTTGGTGA,0.0436 ± 0.052
9,AATTAAGC,-0.157 ± 0.041
10,CCTGAGTA,-0.132 ± 0.056
11,CCGGAAGG,-0.208 ± 0.045
12,AACTATGC,0.00206 ± 0.056
13,CTTTAACC,-0.285 ± 0.062
14,ACGTTGAG,0.0145 ± 0.014
15,AAGCCAAA,-0.1689 ± 0.00031
16,CATAGCCC,-0.0201 ± 0.11
17,ATAAACTG,-0.121 ± 0.14
18,TAGAATAA,-0.176 ± 0.13
19,AAATTATA,-0.166 ± 0.028
20,CATCTGGC,-0.176 ± 0.015
21,CATTTCGA,-0.00162 ± 0.0068
22,CTGGAATC,-0.0874 ± 0.041
23,TCATTGAA,-0.129 ± 0.0043
24,GAGCGGGA,0.0728 ± 0.0082
25,CACAGGCC,-0.0537 ± 0.057

row,Sequence,PBM E-score of 8-mer
1,GGGCACAC,0.11 ± 0.0059
2,ACCCTTTA,0.147 ± 0.041
3,ACGGCAAA,-0.162 ± 0.058
4,AGCCCCCC,-0.197 ± 0.046
5,CAATATCG,0.0294 ± 0.062
6,ATTATAAG,-0.28 ± 0.029
7,GCTTAGGA,-0.107 ± 0.059
8,CCATTACA,-0.061 ± 0.054
9,CGGAGCCA,-0.164 ± 0.067
10,GAGGGCAC,-0.124 ± 0.058
11,CCTATGCG,0.00647 ± 0.019
12,AACCGTCG,0.0986 ± 0.06
13,ATCCCGCA,-0.139 ± 0.033
14,CATCGTGC,-0.00918 ± 0.0049
15,AAAAGCGA,-0.0551 ± 0.1
16,GTCCTTGA,-0.153 ± 0.03
17,CGCAGAGC,-0.0851 ± 0.07
18,CTAACTGC,0.068 ± 0.011
19,AACCCCCC,-0.177 ± 0.0031
20,ATGCCCCC,-0.25 ± 0.0037
21,GCATCTTA,-0.111 ± 0.022
22,ACCTACAG,0.0962 ± 0.0064
23,CTCCGTGA,0.0421 ± 0.026
24,CCAATTAC,-0.0394 ± 0.025
25,AATGGTAG,-0.0184 ± 0.033

row,Sequence,PBM E-score of 8-mer
1,GTCGCTGA,0.112 ± 0.0096
2,GACCACAA,0.016 ± 0.03
3,CATCAAGG,-0.175 ± 0.019
4,GTACTAAC,-0.109 ± 0.035
5,ACATACAG,0.0295 ± 0.021
6,GAGACTAC,-0.194 ± 0.044
7,CCGAAAAC,-0.103 ± 0.0052
8,AAGACTGA,-0.182 ± 0.0036
9,CAGAACGC,-0.12 ± 0.029
10,GAACCCGA,0.122 ± 0.0022
11,GCACTACC,0.0381 ± 0.028
12,AGGTAACA,0.283 ± 0.0031
13,GAATGAAC,-0.175 ± 0.0039
14,GCAATCCC,-0.149 ± 0.0016
15,AAGCAGCG,0.0896 ± 0.051
16,ACAGTCGA,0.0199 ± 0.0077
17,AAAAGAAA,-0.0891 ± 0.091
18,CTGTTCTC,0.0498 ± 0.021
19,CGCGAACC,0.375 ± 0.013
20,AAGTTTTC,0.00021 ± 0.035
21,CGACAAAG,0.158 ± 0.034
22,ATTCCTGC,-0.175 ± 0.081
23,CCCTCGGC,-0.147 ± 0.015
24,GAGTCTCC,-0.236 ± 0.025
25,CAAATCTA,-0.0867 ± 0.04

row,Sequence,PBM E-score of 8-mer
1,GCAAACAC,0.258 ± 0.0091
2,ACGCAAAG,-0.095 ± 0.035
3,AAAGTCCT,-0.289 ± 0.0026
4,GTGTCTAA,0.199 ± 0.025
5,ACGACTTG,0.201 ± 0.046
6,CATGAAGA,-0.0154 ± 0.063
7,AAGGGAGT,0.0381 ± 0.087
8,GTCCTATA,-0.386 ± 0.0075
9,AGACGAAG,-0.156 ± 0.084
10,AAATGCAA,-0.164 ± 0.052
11,CGACGATA,0.0611 ± 0.037
12,AACGTGGA,-0.151 ± 0.012
13,AGTTCTGA,-0.131 ± 0.043
14,CGCGTATC,0.217 ± 0.039
15,AGGTAATC,-0.0113 ± 0.0055
16,ATTCCGGG,-0.236 ± 0.0029
17,AAAGGGCA,-0.0549 ± 0.02
18,ATAAGACA,-0.231 ± 0.037
19,CAACTTCA,-0.0174 ± 0.018
20,TGGGAACA,0.156 ± 0.027
21,CTGCTTAC,0.00038 ± 0.057
22,AGCCCACG,-0.216 ± 0.05
23,ACAACAGC,0.207 ± 0.0049
24,CCGTCGAA,-0.191 ± 0.048
25,AAATATTA,-0.00859 ± 0.047

row,Sequence,PBM E-score of 8-mer
1,ACGAGGTA,-0.0678 ± 0.011
2,ATCAATCC,-0.172 ± 0.082
3,CATATTTC,0.00998 ± 0.024
4,CCGATTGC,-0.0202 ± 0.054
5,CAACAATG,0.0633 ± 0.018
6,CGTTCCCA,0.0732 ± 0.0075
7,CCCCATAG,-0.106 ± 0.053
8,GTGGACAC,0.2 ± 0.025
9,AGCATCAG,-0.168 ± 0.013
10,ATAGTCCA,-0.213 ± 0.016
11,CTATAGGC,-0.15 ± 0.022
12,CTTGAAAG,-0.132 ± 0.02
13,CCACCGAG,-0.103 ± 0.15
14,GCGCGAGC,0.298 ± 0.053
15,ACACTATG,0.339 ± 0.025
16,ACTTGTAT,-0.13 ± 0.024
17,GGGCAACC,-0.156 ± 0.12
18,AGCTCAAG,-0.19 ± 0.025
19,CCGCAAAC,0.00862 ± 0.081
20,TACCCAAA,-0.247 ± 0.021
21,GGGGTGAC,0.293 ± 0.043
22,CTGAGTTC,-0.0724 ± 0.1
23,CTCACTCC,0.1631 ± 0.0014
24,GCACGCGA,0.186 ± 0.025
25,CTAAGTCC,-0.306 ± 0.026

row,Sequence,PBM E-score of 8-mer
1,CCCTGGAA,-0.2852 ± 0.0011
2,AGCACGGA,-0.151 ± 0.074
3,ACACACCC,0.33 ± 0.0064
4,TGGATAAA,-0.228 ± 0.029
5,ACGTATCC,-0.203 ± 0.053
6,CGTTGTCC,-0.0704 ± 0.064
7,CCCGGGAC,-0.243 ± 0.021
8,TCACAAAA,0.0827 ± 0.084
9,CTTGTGTC,0.0961 ± 0.026
10,CCTGCCGA,-0.097 ± 0.019
11,TCCATAGA,-0.123 ± 0.0071
12,GTACACTA,-0.0864 ± 0.057
13,CTATGGCC,-0.101 ± 0.041
14,CCCGAGGC,0.135 ± 0.022
15,ATGCCAAG,-0.291 ± 0.022
16,CCAACTCG,0.0776 ± 0.035
17,ACGGGTTA,-0.113 ± 0.063
18,TAGTGTGA,0.453 ± 0.011
19,AGTCGCGA,0.352 ± 0.014
20,AGCTATCC,-0.276 ± 0.083
21,ACAAATGG,-0.0752 ± 0.018
22,CTGTACTA,-0.129 ± 0.071
23,CTACACGC,0.163 ± 0.011
24,AAGTTACA,0.0132 ± 0.058
25,GATTAAAA,-0.0805 ± 0.057

row,Sequence,PBM E-score of 8-mer
1,CACATGGC,0.194 ± 0.019
2,AGAAGACC,-0.19 ± 0.066
3,AGGTTCAT,-0.0844 ± 0.077
4,CGTAACTC,-0.134 ± 0.057
5,CATACCAC,0.0608 ± 0.012
6,CCGCGTGC,0.129 ± 0.15
7,CGAGAGAG,0.0904 ± 0.028
8,GGCGGCCC,-0.177 ± 0.0053
9,AACATTCA,-0.0456 ± 0.036
10,GTCGTTGA,0.108 ± 0.026
11,CCATTAGG,-0.272 ± 0.042
12,CGAACGAG,0.0552 ± 0.067
13,AATACGAC,0.0331 ± 0.0058
14,AGCGGCTC,0.0237 ± 0.003
15,AATCTGGA,-0.326 ± 0.099
16,GGCCATAA,-0.0646 ± 0.045
17,CCGGATAC,-0.202 ± 0.034
18,AATACATC,-0.129 ± 0.052
19,ACTTACTA,-0.158 ± 0.036
